Reference: PubChem BioAssay AID1508624 (National Center for Advancing Translational Sciences (NCATS), 2021)
In all, about 48,000 compounds went through this assay and about 120 (0.25%) were called active. Inconclusive results (about 4%) are left out. Calls follow the shape of the dose curve; as a rule, active = well fitted activation curve with a large enough effect; inconclusive = small, poorly fitted or top-dose-only effect, or another doubt; inactive = no such curve, though single readings can be large or run the other way. Some of the results follow.

Experiment: Primary qHTS for Identification of Small Molecule Activators of Huntingtin-Antisense Promoter Activity; also: nearly all actives have a fitted effect of over 55% in size
Conditions: HEK293 HTT-AS promoter firefly luciferase reporter (activity 0% = vehicle and -100% = no light), 24 h; series mostly up to 57.5 µM; activity change, positive = activation: at the top concentration
Method in brief: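 HEK293 Fluc reporter, 2,500 cells/well, 24 h pre-culture; cpds up to 57.5 uM final, 24 h 37 degrees C; Dual-Glo, 10 min RT; normalized vehicle = 0%, zero RLU = -100%.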

Activity change, positive = activation, inactive:
O=C(Cc1ccc(Cl)cc1)Nc1ccc2nn(-c3ccccc3)nc2c1 19.5%, Cc1ccccc1C(c1c(C)n(C)n(-c2ccccc2)c1=O)c1c(C)n(C)n(-c2ccccc2)c1=O -9.49%, CCC1CN(C(=O)N2CCC(C(=O)NCc3ccco3)CC2)c2ccccc2O1 (stereo not drawn) -12.4%, Cc1ccc(-n2c(SCC(=O)Nc3c(C)cccc3C)nc(O)c(C)c2=O)cc1 -16.2%, COCCNC(=O)C(=O)NCC(c1cccnc1)N1CCN(c2ccccc2)CC1 (stereo not drawn) -10.2%, CCOc1ccc2c(c1)c(=O)c(C(=O)c1ccc(C)cc1)cn2Cc1ccccc1OC -39.9%, CO[C@@]1(NC(=O)Cc2cccs2)C(=O)N2C(C(=O)O)=C(COC(N)=O)CS[C@@H]21 0.521%, CCOc1ccccc1NC(=O)CN1C(=O)C2(SCC(=O)N2c2ccc(C)cc2)c2ccccc21 (stereo not drawn) -24.3%, CC(C)c1ccc(NC(=O)Cn2c(=O)n(Cc3nc(-c4ccccc4)no3)c(=O)c3cc4c(cc32)OCO4)cc1 -5.44%, CC(=O)c1cccc(NC(=O)N2CCC(CN3CCCCC3)CC2)c1 -14.8%, N#CC(=Cc1ccc(O)c(O)c1)C(=O)NCc1ccccc1 13.6%, CCS(=O)(=O)c1ncc(Cl)c(C(=O)N(Cc2ccccc2)c2ccc(OC)cc2)n1 -94.2%, Cc1ccc(-n2ncc3c(=O)n(Cc4ccccc4C)cnc32)cc1C -11.7%, Cc1cc(C)c(CN2C(=O)c3ccccc3S(=O)(=O)c3ccc(C(=O)OCC4CCCO4)cc32)c(C)c1 (stereo not drawn) -29.6%, Cc1ccc2c(c1)C(c1ccc(F)cc1)N(C(=O)c1cccc(C(F)(F)F)c1)CC(=O)N2 (stereo not drawn) -30.1%, Cc1ccc(-n2nnnc2CNC(=O)c2ccccc2C)cc1C -8.77%, COc1cccc(N2CCN(Cc3cc(=O)oc4cc(C)ccc34)CC2)c1 -14.9%, CC(C)OCCCN1C(=O)c2[nH]nc(-c3ccccc3O)c2C1c1cccc(OCc2ccccc2)c1 (stereo not drawn) -44.1%, N#Cc1cccc(NC(=O)CCNS(=O)(=O)c2ccc3c(c2)CCN3C(=O)C2CC2)c1 -13%, CCOC(=O)c1c(C)[nH]c(CCC(=O)NCCCN2CCN(c3ccccc3F)CC2)c1C -13.4%, O=C(Nc1nnc(S(=O)(=O)N2CCc3ccccc32)s1)c1ccccc1Cl -15.8%, Cc1c2cnn(CC(=O)N3CCN(c4ccc(F)cc4)CC3)c(=O)c2c(C)n1Cc1ccccc1F -26.1%, CC1(COc2ccc3c(c2)ncn3-c2ccc3cccc(N4CCC(N)CC4)c3n2)COC1 -50.6%, Cc1cc(C)cc(-n2ccnc2SCC(=O)Nc2nc3ccc(C)cc3s2)c1 -8.19%, CN(C)c1ccc(CNC(=O)Cn2ccc3cc(S(=O)(=O)N4CCCCCC4)ccc32)cc1 -14.2%, COc1ccc(-c2nc(Cn3c(=O)cc(C)c4c(C)nn(-c5ccccc5)c43)c(C)o2)c(OC)c1 -15.2%, O=C(CCn1cnc2onc(-c3ccc(F)cc3)c2c1=O)N1CCN(c2ccccc2F)CC1 -8.44%, Cc1ccc2c(CC(=O)N(Cc3cccc(Cl)c3)C3CCS(=O)(=O)C3)coc2c1 (stereo not drawn) -5.27%, CNS(=O)(=O)c1cn(CC(=O)N2CCN(c3ccccc3OC)CC2)cc1S(=O)(=O)NC -9.18%, COC(=O)c1ccccc1NC(=O)Cn1c(=O)cc(C)c2c(C)nn(-c3cccc(Cl)c3C)c21 10.4%, COc1ccc(Cl)cc1NC(=O)Cn1cnc2sc(C)c(S(=O)(=O)N3CCN(c4ccccc4OC)CC3)c2c1=O 14.9%, O=C(CC1Nc2cccc3cccc(c23)NC1=O)Nc1ccc(F)cc1 (stereo not drawn) -23.7%, CCc1ccc2occ(CC(=O)Nc3c(C(=O)Nc4ccc(Cl)cc4)oc4ccccc34)c2c1 -0.242%, Cc1ccc(CNC(=O)C(=O)NCC(c2cccs2)S(=O)(=O)c2cccs2)cc1 (stereo not drawn) -18.2%, CC(C)(C)OC(=O)N1CCC(c2c(C(=O)Nc3ccc4c(c3)OCO4)cnn2-c2ccc(F)cc2F)CC1 4.87%, Cc1cc(-c2ccc(C)c(S(=O)(=O)N(Cc3cccs3)C(C)C)c2)on1 -50.8%, CCSc1nc2c([nH]c3ccccc32)c(=O)n1-c1ccc(OC)cc1 -9.05%, O=C(O)CCCC(=O)N1CCc2cc(S(=O)(=O)NCc3ccccc3)ccc21 -3.02%, Cc1cccc(NC(=O)CCNS(=O)(=O)c2ccc3c(c2)CCCC(=O)N3)c1C -8.73%, CCOC(=O)c1[nH]c2c(c1Cc1ccccc1)C(=O)CC(c1ccc(OC)cc1)C2 (stereo not drawn) -25.6%, CN(C)c1ccc(NC(=O)Cn2c(SCc3ccc(F)cc3)nc3cccnc32)cc1 -19%, Cc1ccccc1Cn1c(=O)n(CCCCC(=O)NCCc2ccccc2)c(=O)c2ccccc21 -9.5%, CCc1ccc(NC(=O)CSC2=Nc3ccccc3C3=NC(CC(=O)NCc4ccc5c(c4)OCO5)C(=O)N23)cc1 (stereo not drawn) -6.65%, c1coc(-c2nc3ccccn3c2Nc2ccc3c(c2)OCCO3)c1 9.59%, CCOc1ccc(NC(=O)CCS(=O)(=O)c2ccc3nc(C)sc3c2)cc1 -7.14%, Cc1ccc(Cn2c(SCc3ccc(C(=O)NCCc4ccccc4)cc3)nc3ccncc32)cc1 -10.7%, COc1ccc(-n2c(=O)c3sc4ccccc4c3n(CC(=O)N3CCCC3)c2=O)cc1 -2.04%, Cc1nc(-c2ccc(C)c(N3CCN(C(=O)Nc4ccc(Br)cc4)CC3)c2)no1 -37.7%, CCn1cc(S(=O)(=O)c2cccc(C)c2)c(=O)c2cc(F)c(N3CCCCC3C)cc21 (stereo not drawn) -1.01%, COc1ccc(-n2c(SCC(=O)N3CCCc4ccccc43)nc3c([nH]c4ccccc43)c2=O)cc1 -13%, COc1ccc(-c2cn3c(n2)sc2cc(C(=O)Nc4ccccc4F)ccc23)cc1 18.2%, COc1cc2c(=O)c(S(=O)(=O)c3ccc(C)cc3)cn(Cc3cccc(C)c3)c2cc1OC -22.8%, CC1CN(C(=O)N2CCC(C(=O)NCCC3=CCCCC3)CC2)c2ccccc2O1 (stereo not drawn) 3.58%, O=C(CSc1nnc(-c2cccs2)o1)Oc1ccc(Cl)cc1 -20.2%, CCCCNC(=O)C1CCCN(c2nnc(C)c3c(C)n(-c4ccc(Cl)cc4)nc23)C1 (stereo not drawn) -19.9%, CC(C)c1ccc(S(=O)(=O)Nc2ccc(O)c(Sc3nc4ccccc4s3)c2)cc1 -28.6%, CSc1cccc(NC(=O)C2CCN(S(=O)(=O)c3ccc4[nH]c(=O)ccc4c3)CC2)c1 -19.7%, CCOC(=O)C1(C)C=C(Nc2ccc(C)cc2)C(=O)N1c1ccccc1 (stereo not drawn) 0.606%
